We go through 23 molecules from ChEMBL document CHEMBL1157539, “Thousands of chemical starting points for antimalarial lead identification” (Nature, 2010).

Several values for one entry are separate records, joined by “and”; a condition that tells them apart may be missing. Equal entries are not always repeated. In all, about 13,000 compounds were measured (“IFI”: median about 4, highest 2% from about 17 on). Some of the results follow.

The assay is described as follows: GSK_TCMDC: Inhibition Frequency Index (IFI). The number of non-kinase HTS assays where a compound showed > 50 % inhibition, expressed as a percentage of the number of such assays in which the compound was tested (-0 is zero). Format: functional.
The molecule `CC1(CCCCN2CC=C(c3c[nH]c4ccccc34)CC2)C(=O)Nc2ccccc21` (stereo not drawn) registered an IFI of 3.08%.
`CC(C)CNCc1ccc(-c2cccc(CN(C(=O)CCC3CCCC3)C3CCN(Cc4ccccc4)CC3)c2)cc1` yielded an IFI of 9.29%.
The figure for `COc1cc(NC(=O)c2nn(CCCN3CCC4(CC3)C(=O)NCN4c3ccccc3)cc2-c2ccc(Cl)c(Cl)c2)cc(OC)c1OC` is 15.4%; for `CCCCCC(C)C(C)c1cc(O)c2c(c1)OC1(C(C)C)CC(O)C(C)C2C1` (stereo not drawn) it is 5.71%.
Regarding `O=C(NC1CCC(CN2CCC(c3c[nH]c4ccccc34)CC2)CC1)c1cc(-c2ccccc2Cl)oc1C(F)(F)F` (stereo not drawn), the IFI was found to be 0.68%.
Next, `O=C(/C=C/c1ccc2ccccc2c1)NC1CCC(CN2CCC(c3c[nH]c4ccccc34)CC2)CC1` (stereo not drawn): 4.23%; `CC[C@H]1CN2CC[C@H]1C[C@H]2[C@H](O)c1cc(-c2ccc(C)cc2)nc2ccc(OC)cc12`: 8.72%.
`O=C(/C=C/c1ccccc1Cl)NC1CCC(CN2C3CCC2CC(c2c[nH]c4ccccc24)C3)CC1` (stereo not drawn) yielded an IFI of 6.38%.
Next, `COc1cccc(C(=O)C2CC2CN2CC=C(c3c(C)[nH]c4ccccc34)CC2)c1` (stereo not drawn): 3.74%.
In turn, `CO/C(=C\C=C\c1cc2cc(Cl)c(Cl)cc2[nH]1)C(=O)N[C@H]1CN2CCC1CC2` showed an IFI of 13%.
`Cc1ccc(C[C@@H](C)NC[C@H](O)c2cccc(C(F)(F)F)c2)cc1` registered an IFI of 8.7%.
The figure for `O=C(/C=C/c1ccc(Cl)c(Cl)c1)N1CCC2CC(N3CCC(c4c[nH]c5ccccc45)CC3)CCC2C1` (stereo not drawn) is 7.19%.
For `CC[C@H]1CN2CC[C@H]1C[C@H]2[C@H](O)c1cc(-c2cccc(Cl)c2)nc2ccc(OC)cc12`, the IFI was 8.97%.
`CCCc1c(C(=O)NC2CCC(CN3CCC(c4c[nH]c5ccccc45)CC3)CC2)cnn1-c1ccccc1` (stereo not drawn) showed an IFI of 6.38%.
The figure for `CC(Cc1ccc(SC(C)C)cc1)NCC(O)c1cccc(Cl)c1` (stereo not drawn) is 10.1%.
The figure for `O=C(/C=C/c1ccc(Cl)c(Cl)c1)NC1CCC(N2CCC(c3c[nH]c4ccc(O)cc34)CC2)CC1` (stereo not drawn) is 2.96%; for `CC(Cc1ccc(S(=O)(=O)N(C(C)C)C(C)C)cc1)NCC(O)c1cccc(C(F)(F)F)c1` (stereo not drawn) it is 6.29%.
In turn, `COc1cccc(C2(C)CCN(CCCCNC(=O)c3ccc(NC(=O)c4ccc(Cl)cc4)cc3)CC2)c1` gave an IFI of 9.01%.
With `COc1ccc(C2CNCc3c2cc(OC)c(OC)c3Cl)cc1` (stereo not drawn), the IFI was found to be 2.94%.
The figure for `O=C(/C=C/c1ccc(Cl)c(Cl)c1)Nc1cccc(CN2CCC(c3c[nH]c4ccc(O)cc34)CC2)c1` is 2.88%; for `COC(C(=O)OCCC1CCCN1C)(c1ccccc1)c1ccccc1` (stereo not drawn) it is 2.19%.
On to `O=C(/C=C/c1cccc2ccccc12)NC1CCC(CN2CCC(c3c[nH]c4ccccc34)CC2)CC1` (stereo not drawn), for which the IFI is 6.43% and 5.67%.
Next, `O=C(COc1ccc(Cl)cc1)N1CCC(CN2CCC(c3c[nH]c4ccccc34)CC2)CC1`: 8.51%.
